The other results are listed elsewhere or left out. Sequences were assembled here from the parent chain. Inactive controls read about 0.05.
B1: TEV protease; numbered along this chain (parent)
chain: MGESLFKGPRDYNPISSSICHLTNESDGHTTSLYGIGFGPFIITNKHLFRRNNGTLVVQSLHGVFKVKDTTTLQQHLVDGRDMIIIRMPKDFPPFPQKLKFREPQREERICLVTTNFQTKSMSSMVSDTSCTFPSGDGIFWKHWIQTKDGQCGSPLVSTRDGFIVGIHSASNFTNTNNYFTSVPKNFMELLTNQEAQQWVSGWRLNADSVLWGGHKVFMVKPEEPFQPVKEATQL

Variants of: B1
Experiment: raw area under fraction-flipped curve 0-4 h after induction (AUC4h, not background-subtracted), DNA-recorder readout of cleavage of the substrate (dimensionless); higher = more cleavage of the substrate by the protease variant
Details: temperature: 34 °C; time window: 0-4 h after rhamnose induction
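Note: Bxb1 expression induced with 0.2% (w/v) L-rhamnose at OD600 near 0.5, cultures sampled hourly, flipped fraction per protease–substrate barcode pair counted by paired-end Illumina sequencing.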

| Variant | area with substrate QNLYFQS | area with substrate KNLYFQS | area with substrate MNLYFQS | area with substrate SNLYFQS | area with substrate WNLYFQS | area with substrate RNLYFQS | area with substrate TNLYFQS | area with substrate LNLYFQS | area with substrate PNLYFQS | area with substrate YNLYFQS |
| --- | --- | --- | --- | --- | --- | --- | --- | --- | --- | --- |
| G2S | 0.0533 | – | – | – | – | – | – | – | – | – |
| Q74I | – | 0.0678 | 0.0585 | 0.059 | 0.0521 | – | – | – | – | – |
| G138P | – | – | – | 0.0593 | – | 0.0453 | 0.0659 | – | – | – |
| G138W | – | – | – | 0.0712 | – | – | – | 0.0629 | 0.0631 | 0.0564 |
| G138M | – | – | – | – | 0.0643 | – | – | – | – | – |
| G138F | – | – | – | 0.0589 | 0.0515 | – | 0.0705 | – | – | – |
| G138T | – | 0.0571 | – | – | – | 0.0546 | – | – | – | – |
| G138Y | – | – | – | – | – | – | – | – | 0.0743 | – |
| G138L | 0.0615 | – | – | – | 0.0527 | 0.0516 | – | 0.0547 | – | 0.0638 |
| G213H | – | – | – | – | – | – | 0.0678 | – | – | 0.0428 |
| G37C | – | – | – | – | 0.0621 | – | – | 0.087 | – | – |
| N178M | – | – | – | – | – | – | 0.0953 | – | – | – |
| N178Q | – | 0.062 | – | – | 0.0698 | – | – | 0.0767 | 0.0689 | 0.0867 |
| N178C | – | – | – | – | 0.0502 | – | – | – | – | 0.0596 |
| F95L | – | – | – | – | – | – | 0.0509 | 0.0594 | 0.06 | – |
| F95N | – | 0.0475 | – | 0.0544 | 0.0574 | – | 0.0473 | – | – | – |
| N186T | – | 0.0464 | – | – | 0.0685 | – | – | 0.0862 | – | 0.0579 |
| N186F | – | – | – | – | 0.0715 | – | – | 0.0572 | – | – |
| L190D | – | – | 0.0609 | 0.0682 | – | – | 0.0639 | 0.0708 | – | 0.0599 |
| V210E | – | – | – | 0.0558 | – | – | – | 0.0541 | – | – |
| F180S | – | 0.0673 | – | – | – | – | – | – | 0.0481 | – |
| T119G | 0.0668 | – | 0.0511 | – | – | – | 0.0707 | – | 0.0708 | – |
| T119C | – | – | 0.0576 | – | – | – | – | – | – | – |
| T119R | – | – | – | – | 0.045 | – | – | – | – | – |
| L211D | – | – | – | – | – | – | – | 0.0655 | – | – |
| C131Q | – | – | – | – | 0.0608 | – | – | – | – | – |
| C131P | – | – | – | 0.0758 | 0.0493 | – | 0.0737 | 0.0609 | 0.111 | – |

| Variant | area with substrate QNLYFQS | area with substrate KNLYFQS | area with substrate MNLYFQS | area with substrate SNLYFQS | area with substrate WNLYFQS | area with substrate RNLYFQS | area with substrate TNLYFQS | area with substrate LNLYFQS | area with substrate PNLYFQS | area with substrate YNLYFQS |
| --- | --- | --- | --- | --- | --- | --- | --- | --- | --- | --- |
| C131W | – | – | – | – | – | – | 0.0573 | – | 0.0581 | – |
| C131H | – | – | – | 0.0588 | – | – | – | – | 0.0699 | 0.0427 |
| I85A | – | – | – | – | 0.053 | – | – | – | 0.0672 | – |
| H215S | – | – | – | – | 0.0496 | – | – | – | – | – |
| H215I | – | – | – | – | – | – | 0.0606 | – | – | 0.0531 |
| P93W | – | – | – | – | – | – | 0.0647 | 0.0616 | – | – |
| H76G | – | – | – | 0.0568 | 0.0662 | – | – | – | – | – |
| G153S | – | – | – | – | – | – | 0.0734 | – | – | – |
| G153F | – | – | – | 0.0438 | – | – | 0.0451 | – | – | – |
| G153M | – | – | – | 0.0467 | – | – | 0.0479 | – | 0.0524 | – |
| M1I | – | – | – | 0.0564 | – | – | – | – | – | – |
| V113W | – | – | 0.0735 | 0.0549 | 0.0676 | – | 0.0677 | – | 0.065 | – |
| G162V | – | – | – | – | – | 0.0491 | – | – | – | – |
| S169K | – | 0.0726 | – | – | 0.0288 | – | 0.0514 | – | – | – |
| S169Y | – | – | – | 0.0573 | 0.0595 | – | 0.0669 | – | 0.0465 | – |
| L235Y | – | 0.0761 | – | – | – | – | 0.12 | – | – | – |
| I164V | – | – | – | 0.0488 | – | – | – | – | – | – |
| V78I | – | – | 0.0847 | 0.057 | 0.0563 | – | 0.0691 | – | 0.0624 | – |
| N116T | 0.0724 | 0.0647 | – | – | 0.0413 | – | – | – | – | – |
| R87N | – | – | – | – | 0.0538 | – | 0.0686 | – | – | – |
| T181C | – | – | – | – | 0.0557 | – | 0.0492 | – | – | – |
| T181I | – | 0.0633 | 0.0682 | 0.0636 | 0.0608 | – | – | – | – | – |
| T181K | – | – | – | – | 0.0525 | – | – | – | 0.0463 | 0.0716 |
| R204P | – | – | – | – | – | – | – | – | 0.0477 | – |
| T132K | – | – | – | – | 0.0608 | – | – | – | – | – |
| F218I | – | – | 0.0589 | – | 0.0638 | – | 0.0566 | – | – | – |

Same assay, conditions: temperature: 34 °C; time window: 0-4 h after rhamnose induction

| Variant | area with substrate NNLYFQS | area with substrate VNLYFQS | area with substrate INLYFQS |
| --- | --- | --- | --- |
| N178C | 0.0644 | – | – |
| F95N | – | 0.068 | – |
| N186R | – | 0.0631 | – |
| L190D | – | 0.0548 | – |
| V210E | 0.056 | – | – |
| I85A | 0.057 | – | – |
| H215S | – | 0.0616 | 0.0674 |
| P93W | 0.0525 | – | – |
| G153M | – | 0.0384 | – |
| V113W | 0.0443 | – | – |
| L235Y | 0.0702 | 0.0409 | – |
| T181K | 0.0525 | 0.0421 | – |
| F218I | 0.0485 | – | 0.0523 |

— the supplement of paper PMC12217912
